Out of some 91,000 compounds screened, about 130 (0.14%) were called active. Inconclusive results, whose numbers are uncertain, are shown with a selection of clear calls. The call rests on the fitted dose curve; in most records, active means well fitted inhibition curve with a large enough effect; inconclusive means small, poorly fitted or top-dose-only effect; inactive means flat fitted curve, though single readings scatter. Where the call is inconclusive, the potency comes from a doubtful curve fit.
Each compound was assayed on Uracil-DNA glycosylase (assay: Primary qHTS assay for inhibitors of Activation Induced Cytidine Deaminase (AID): UDG Counterscreen signal). Details: FRET deamination/UDG coupled assay, UDG read, 4 h; activity change, negative = inhibition: at 115 µM (top of the series).
Further: nearly all actives have a fitted effect of over 65% in size.
On the % scale 0 is the no-effect control and ±100 the full control effect; potency means the concentration at half of the fitted maximal effect; tags describe the fitted curve by direction and shape.

Row | Structure (SMILES) | Potency | activity change, negative = inhibition
1 | CC(C)(C)c1ccc(C(=O)Nc2cc(-c3ccccc3)nn2-c2ccccc2)cc1 | inconclusive: 100 µM [inhibitor, single point] | –
2 | Fc1ccc(/C=N/Nc2cc(C(F)(F)F)ccc2Cl)c(F)c1 | – | inactive: -3.7%
3 | CCCCn1cc(S(=O)(=O)c2ccccc2)c(=O)c2cc(F)c(N3CCN(CCC)CC3)cc21 | inconclusive: 56.2 µM [inhibitor, single point] | –
4 | CCOCCn1ccc2c(OCC(=O)NCc3ccc(F)cc3)cccc2c1=O | inconclusive: 100 µM [inhibitor, single point] | –
5 | CC(C)(C)c1ccc(-c2nc(SCCOc3ccc(Cl)cc3)n3[nH]c(=O)cc3n2)cc1 | – | inactive: -4.98%
6 | Cc1ccc(NC(=O)CSc2nc3ccc(Br)cc3[nH]2)c(C)c1 | – | inactive: -11.1%
7 | COC(=O)CSc1nc2c(c(=O)n(C)c(=O)n2C)n1Cc1ccccc1Cl | – | inactive: 3.34%
8 | Cc1ccc(Cn2cc(C(=O)NCCCc3[nH]nc(N)c3C#N)c(-c3ccc(C)cc3)n2)cc1 | – | inactive: -6.39%
9 | COc1ccc(S(=O)(=O)NCc2cccn2Cc2cccc(C)c2)cc1Cl | inconclusive: 100 µM [inhibitor, partial curve, poor fit] | –
10 | CC(C)Cc1nc2cccnc2n1C1CCN(S(=O)(=O)c2ccc3c(c2)CCCC3)CC1 | active: 79.4 µM | –
11 | O=C(CSC1=Nc2ccccc2C2=NC(CC(=O)NC3CCCCC3)C(=O)N12)Nc1ccc(F)cc1 (stereo not drawn) | inconclusive: 89.1 µM [inhibitor, single point] | –
12 | Cc1ccc2[nH]c(CSc3nnc(NC(=O)COc4ccccc4)s3)cc(=O)c2c1 | inconclusive: 39.8 µM [inhibitor, single point] | –
13 | CCS(=O)(=O)N1CCc2cc(C(=O)Nc3ccc(OC)c(Cl)c3)ccc21 | inconclusive: 89.1 µM [inhibitor, partial curve, poor fit] | –
14 | COc1cccc(Cn2c(=O)c3sccc3n(CC(=O)N(C)C3CCCCC3)c2=O)c1 | – | inactive: -5.06%
15 | FC(F)(F)c1ccccc1N/N=C1/CCc2ccccc21 | – | inactive: -5.63%
16 | Cn1c(SCc2ccc(F)cc2)nc2ccc(C(=O)NCc3ccc(Cl)cc3)cc21 | – | inactive: -11.6%
17 | C/C(=N/Nc1ccc2ccccc2c1)c1ccccc1 | – | inactive: 8.41%
18 | CCc1cccc(OCC(=O)Nc2ccc(S(=O)(=O)Nc3cc(C)nc(C)n3)cc2)c1 | inconclusive: 15.8 µM [inhibitor, full curve, poor fit] | –
19 | CCOC(=O)C1CCCN(CCOc2cccc(C(F)(F)F)c2)C1 (stereo not drawn) | – | inactive: -1.67%
20 | CN1C(=O)Cc2cc(S(=O)(=O)CCC(=O)NC3CCCCCCC3)ccc21 | inconclusive: 56.2 µM [inhibitor, partial curve, poor fit] | –
21 | O=C(CCc1ncc(-c2ccccc2Cl)o1)NCC1CCCO1 (stereo not drawn) | – | inactive: -2.17%
22 | O=C(O)CCC(=O)c1cccc(Br)c1 | – | inactive: -6.25%
23 | CCOC(=O)C1C(c2ccccc2F)NC(=O)NC1(O)C(F)(F)F (stereo not drawn) | – | inactive: -5.97%

Row | Structure (SMILES) | Potency | activity change, negative = inhibition
24 | CC1CCN(S(=O)(=O)c2ccc3c(c2)oc(=O)n3CC(=O)NC(C)c2ccccc2)CC1 (stereo not drawn) | inconclusive: 89.1 µM [inhibitor, partial curve, poor fit] | –
25 | CCCCNC(=O)c1nn(-c2ccc(C)cc2)c(=O)c2c1c1ccccc1n2C | inconclusive: 100 µM [inhibitor, single point] | –
26 | CCOC(=O)C(C#N)=C1SC(C(=O)OCC)C(C(=O)OCC)S1 (stereo not drawn) | – | inactive: 0.0385%
27 | Brc1ccc(CNc2n[nH]c(-c3cccs3)n2)cc1 | – | inactive: 7.02%
28 | Cc1ccc2[nH]c(=O)c3cc(C(=O)N(C)c4ccc(Br)cc4)sc3c2c1 | inconclusive: 89.1 µM [inhibitor, single point] | –
29 | CCOc1ccc2c(c1)c(=O)c(C(=O)c1ccccc1)cn2Cc1ccccc1 | inconclusive: 79.4 µM [inhibitor, single point] | –
30 | CC(C)CCn1nc(C(=O)OCC(=O)NC(C)c2ccccc2)c2ccccc2c1=O (stereo not drawn) | inconclusive: 89.1 µM [inhibitor, single point] | –
31 | O=C(CSc1nc2ccccc2o1)N(Cc1ccccc1)Cc1ccccc1 | inconclusive: 89.1 µM [inhibitor, partial curve] | –
32 | Clc1ccc(-c2cc3ccccn3c2)cc1 | – | inactive: 1.08%
33 | COc1ccc(-n2c(=O)c3c4c(sc3n(Cc3cc(C)ccc3C)c2=O)CN(C(C)=O)CC4)c(OC)c1 | inconclusive: 79.4 µM [inhibitor, partial curve, poor fit] | –
34 | Cc1ccc(Sc2c(C)nn(C(=O)COc3ccc(F)cc3)c2C)cc1 | inconclusive: 89.1 µM [inhibitor, single point] | –
35 | CCOc1ccc(NC(=O)Cn2c(Nc3ccc(F)c(C)c3)nc(C)cc2=O)cc1 | – | inactive: -4.94%
36 | O=C(c1cnc(N2CCCCC2)c2ccccc12)N1CCN(c2ccccc2F)CC1 | inconclusive: 89.1 µM [inhibitor, single point] | –
37 | C=C(C)C[C@H]1CC=C[C@H](CC(=C)C)[N+]1(C)C | – | inactive: 3.09%
38 | CC(C(=O)Nc1cc(C(F)(F)F)ccc1Cl)n1nnc2sc3c(c2c1=O)CCCC3 (stereo not drawn) | inconclusive: 89.1 µM [inhibitor, single point] | –
39 | COc1ccc(S(=O)(=O)N2CCn3cccc3C2c2ccccc2)cc1 (stereo not drawn) | inconclusive: 89.1 µM [inhibitor, single point] | –
40 | Cc1ccc(C2=NN(C(=O)CNc3ccc(C(=O)N(C)C)cc3)C(c3ccco3)C2)cc1 (stereo not drawn) | – | inactive: -13.9%
41 | CC(C)C12CN3CC(C(C)C)(CN(C1)C3c1ccc(Cl)cc1)C2=O (stereo not drawn) | inconclusive: 89.1 µM [inhibitor, single point] | –
42 | Fc1ccc(C=Nc2cccc3c(N=Cc4ccc(F)cc4)cccc23)cc1 | inconclusive: 50.1 µM [inhibitor, partial curve, poor fit] | –
43 | CC(C)(C)OC(=O)N1CCC(c2c(C(=O)N3CCN(c4ncccn4)CC3)cnn2-c2ccccc2)CC1 | inconclusive: 89.1 µM [inhibitor, single point] | –
44 | Cc1ccccc1S(=O)(=O)Cc1ccc(C(=O)NC2CCCCC2)o1 | inconclusive: 100 µM [inhibitor, partial curve, poor fit] | –
45 | COc1cc2oc(=O)c(CC(=O)N3CCCCC3)c(C)c2cc1Cl | inconclusive: 100 µM [inhibitor, single point] | –
46 | COCCn1ccc2c(OCC(=O)Nc3cccc(OC)c3)cccc2c1=O | inconclusive: 79.4 µM [inhibitor, single point] | –

Row | Structure (SMILES) | Potency | activity change, negative = inhibition
47 | CC(C)CC(C(=O)NCc1ccc(F)cc1)N1Cc2ccccc2C1=O (stereo not drawn) | inconclusive: 89.1 µM [inhibitor, single point] | –
48 | Cc1ccc(C(C)C)c(OCC(=O)Nc2ccc(C(=O)OC3CCCCC3)cc2)c1 | inconclusive: 79.4 µM [inhibitor, partial curve, poor fit] | –
49 | Cc1oc2ncn(C)c(=O)c2c1C(=O)NC(C)c1ccccc1 (stereo not drawn) | inconclusive: 89.1 µM [inhibitor, partial curve, poor fit] | –
50 | COc1cc(C2C3=C(CCCC3=O)OC3=C2C(=O)CCC3)ccc1OCc1cccc(F)c1 | inconclusive: 89.1 µM [inhibitor, single point] | –
51 | COc1cccc(-c2nc(N3CCCCCC3)c3ccccc3n2)c1O | active: 89.1 µM | –
52 | COc1cccc(-c2nn(C)c3sc(C(=O)NCCc4ccc(Cl)cc4)cc23)c1 | inconclusive: 89.1 µM [inhibitor, partial curve] | –
53 | Cc1ccc(C)c(N2CCN(C(c3ccccc3)c3nnc(-c4ccccc4)o3)CC2)c1 (stereo not drawn) | inconclusive: 89.1 µM [inhibitor, partial curve, poor fit] | –
54 | Cc1ccc(NS(=O)(=O)c2c(C)nc3sc(C)c(C)n3c2=O)cc1F | inconclusive: 89.1 µM [inhibitor, single point] | –
55 | COc1cccc(-c2nc(CS(=O)(=O)CC(=O)Nc3ccc(C)c(Cl)c3)c(C)o2)c1 | inconclusive: 89.1 µM [inhibitor, partial curve, poor fit] | –
56 | O=C(NCc1cnn(-c2ccccc2)c1)C1CCN(S(=O)(=O)c2ccc(F)cc2)CC1 | – | inactive: -4.2%
57 | Cc1cccc(C(=O)Nc2cc(-c3ccccc3F)nn2-c2ccccc2)c1 | inconclusive: 89.1 µM [inhibitor, single point] | –
58 | Cc1ccc2c(c1)c(=O)c1ccccc1n2CCCC(=O)Nc1ccc(C)c(C)c1 | inconclusive: 89.1 µM [inhibitor, partial curve, poor fit] | –
59 | CCCn1c(NCc2ccccc2F)nc2ccccc21 | inconclusive: 89.1 µM [inhibitor, single point] | –
60 | Cn1c(=O)c2c(ncn2CC(=O)OCc2ccccc2F)n(C)c1=O | – | inactive: -7.56%
61 | COC1/C=C\OC2(C)Oc3c(C)c(O)c4c(c3C2=O)C2(C=C(NC(=O)/C(C)=C\C=C/C(C)C(O)C(C)C(O)C(C)C(OC(C)=O)C1C)C4=O)OCC(=O)O2 (stereo not drawn) | – | inactive: 1.65%
62 | Cc1ccc(Cl)cc1Nc1nn2c(=O)c3ccc(C(=O)NC4CCC(C)CC4)cc3nc2s1 (stereo not drawn) | inconclusive: 89.1 µM [inhibitor, single point] | –
63 | COc1ccccc1CN1CCC(CNC(=O)c2cnn(-c3cccc(Cl)c3)c2C2CCN(C(=O)OC(C)(C)C)CC2)CC1 | inconclusive: 50.1 µM [inhibitor, partial curve, poor fit] | –
64 | COc1ccccc1C(=O)NC(=O)Nc1ccc(-c2cc(C(F)(F)F)nn2-c2ccccc2)cc1 | inconclusive: 35.5 µM [inhibitor, single point] | –
65 | Cn1cccc1/C=C(\C#N)c1ccc(Cl)cc1Cl | – | inactive: -19.8%
66 | COc1ccc(OC)c(/C=C(/C#N)C(=O)C(C)(C)C)c1 | – | inactive: -1.26%
67 | O=C(CCC1CCCCC1)Nc1cccc(F)c1 | – | inactive: -0.33%
68 | Cc1cccc2c(=O)n(CC(=O)Nc3ccc4oc(C(C)(C)C)nc4c3)cnc12 | – | inactive: -1.11%

From PubChem BioAssay AID1347430 (National Center for Advancing Translational Sciences (NCATS), 2020)
